# According to PubChem BioAssay AID686970 (National Center for Advancing Translational Sciences (NCATS), 2013):
# Screen size: about 360,000 compounds; about 6,000 (1.7%) were called active. About 8% were inconclusive and are not listed. Calls follow the shape of the dose curve; as a rule, active = well fitted cell-killing curve with a large enough effect; inconclusive = small, poorly fitted or top-dose-only effect, or effect the other way; inactive = flat fitted curve, though single readings scatter. The entries are a selection whose mix differs from that of the whole data set.
# Experiment: qHTS for induction of synthetic lethality in tumor cells producing 2HG: qHTS for the HT-1080-NT fibrosarcoma cell line; also: nearly all actives have a fitted effect of over 55% in size
# Settings: HT-1080-NT fibrosarcoma viability, CellTiter-Glo ATP luminescence, 48 h; series mostly up to 46.1 µM; activity, negative = less viability: at the top concentration
# Text: Unbiased genomic sequencing for 22 glioma genomes found recurrent mutation of IDH1 on chromosome 2q33, a gene encoding the cytosolic isoform of IDH1 associated with the tricarboxylic acid cycle (TCA) that catalyzes the oxidative decarboxylation of isocitrate, yielding alpha-ketoglutarate and CO2 via NADP+ to NADPH conversion. Subsequent studies confirmed the recurrent IDH mutations in up to 70% of secondary gliomas and in 10% of AML cases. In addition, the somatic mutation of cancer-associated IDH1 is a point mutation resulting in various amino-acid substituents at Arginine132 (IDH1 R132), a key residue found in the enzyme's active site that when mutated, results in the loss-of-function in metabolizing isocitrate but confers a gain-of-function to produce the oncometabolite 2-hydroxyglutarate (2HG). This in effect defines IDH1 as an oncogene and provides an extraordinary opportunity to discover chemical probes against mutant IDH1 that may translate into much needed new therapies for glioma and AML patients.
# This assay aims to perform a synthetic lethal screen for chemical probes specific for 2HG-producing tumor cells using matched paired cell lines (1) HT-1080-NT fibrosarcoma cell line that overproduces 2HG and (2) HT-1080-IDH1KD cell line which has IDH1 expression knocked-down. Desirable compounds are toxic to the NT fibrosarcoma cells but not to the IDH1KD cell line. The data in this AID corresponds to the results of the qHTS against the HT-1080-NT fibrosarcoma cell line.
# [1] Dang L, Jin S, Su SM. IDH mutations in glioma and acute myeloid leukemia. Trends of Mol Med. 2010; 16(9): 387-97.
# [2] Dang L et al. Cancer-associated IDH1 mutations produce 2-hydroxyglutarate. Nature. 2010; 465(7300):966.
# NIH Molecular Libraries Probe Production Centers Network [MLPCN]
# NIH Chemical Genomics Center [NCGC]
# Assay Submitter (PI): Lenny Dang Ph.D., Agios Pharmaceuticals
# Suspensions of trypsinized HT-1080-NT cells were dispensed into white, tissue culture-treated, solid 1536-well plates at 5uL/well (750 cells/well final concentration) in RPMI medium supplemented with 5% FBS. Plates were incubated at 37 degrees C for 2 hours, after which 23 nL of compounds or DMSO were delivered to each well using a pin tool. Plates were then incubated at 37 degrees C for an additional 48 hours. CellTiter-Glo viability reagent (Promega) was dispensed into wells (2.5uL/well) and incubated at room temperature for 10 minutes. The plates were measured on a PerkinElmer ViewLux plate reader for luminescent signal (clear filter, 1 sec exp). DMSO-treated control wells and media-only (no cells) control wells were used to normalize %Activity of identified toxic compounds; DMSO-treated wells corresponded to 0%Activity (100% viability), while media-only controls were used to normalize 100%Activity (0% viability).
# Concentration-response curves were fitted to the signals arising from the resulting luminescence. The concentration-effect curves were then classified based on curve quality (r2), response magnitude and degree of measured activity, and compounds were subsequently categorized based on their curve class.
# Potency is read from the fitted curve at half-maximal effect.
Compound,"activity, negative = less viability",Potency
CCc1nn(CCCN2CCN(c3cccc(Cl)c3)CC2)c(=O)n1CCOc1ccccc1,inactive: -17%,–
Nc1ncnc2nc[nH]c12,inactive: 26.2%,–
OCC[C@@H]1C[C@@H](O)[C@H](O)[C@@]2(OCCc3ccccc32)O1,inactive: 6.83%,–
O=c1cc(-c2ccc(O)cc2)oc2cc(O)c(C3OC(CO)C(O)C(O)C3O)c(O)c12 (stereo unspecified),inactive: -13.8%,–
C=CC[C@@H](CC(=O)N[C@H](CO)Cc1ccccc1)C(=O)N[C@@H](COC(=O)[C@@H](CC=C)Cc1ccc(F)cc1)Cc1c[nH]c2ccccc12,inactive: 1.8%,–
CC(C)Cc1ccc(C(C)C(N)=NCCc2ccccc2)cc1 (stereo unspecified),–,active: 16.4 µM
C[C@H](O)[C@@H]1C(=O)N2CCc3c([nH]c4ccccc34)[C@@H]2C[C@@H]1N(C)C(=O)Nc1cc(Cl)cc(Cl)c1,–,active: 16.4 µM
C=CC[C@@H](Cc1ccc(F)cc1)C(=O)OC[C@H]1CCCN1C(=O)[C@H](CC=C)CC(=O)N(CCO)Cc1ccccc1,inactive: -9.97%,–
C[C@H](c1ccccc1)N1C[C@H](COCc2ccccc2)Oc2cc(N3CCC[C@H]3C(N)=O)ccc2S1(=O)=O,inactive: -25.7%,–
O=C(c1cc(Cl)cc(Cl)c1)N1CCC(=O)N(C(COCc2ccccc2)Cc2ccccc2)CC1 (stereo unspecified),inactive: -12.3%,–
Cc1cccc(NC(=O)c2ccc([N+](=O)[O-])o2)c1C,–,active: 23.1 µM
CCc1nc2ccc(C(=O)Nc3cc(-c4ccccc4)ccc3OC)cn2c1N(CC)CCN(C)C,–,active: 18.4 µM
CCCCOc1cc(C(=O)OCCN(CC)CC)ccc1N,inactive: 0.461%,–
C#CCNC(=O)C1=C[C@H](c2ccccc2)[C@@H](CCCO)[C@H](OCC)O1,inactive: 1.28%,–
O=C(CCc1ccccc1)N[C@@H]1c2ccccc2CC[C@@H]1OCc1ccccc1,inactive: -0.769%,–
Cc1nc(NC(=O)/C=C/c2ccccc2)n[nH]1,–,active: 9.2 µM
CC(=O)NC1C(O)OC(CO)C(O)C1O (stereo unspecified),inactive: -14.6%,–
Cc1cccc(C2=N/C(=C/c3cccs3)C(=O)O2)c1,inactive: 19.2%,–
C[C@]12C(=O)N(c3ccc(Cl)cc3)C(=O)N1[C@@H]1c3ccccc3OC[C@@H]1[C@H]2c1ccccc1,inactive: 0.169%,–

Compound,"activity, negative = less viability",Potency
CC(C)(C)OC(=O)C[C@H]1C/C=C\C[C@@H](CC(=O)NCCO)C(=O)NC[C@H](c2ccccc2)OC1=O,inactive: 6.69%,–
O=C(Oc1c(Cl)cc(Cl)c2cccnc12)c1cccs1,–,active: 20.6 µM
CCOC(=O)N1C(=O)[C@](c2ccc(Cl)cc2)(C(C)C)N1C(=O)OCC,inactive: -20.5%,–
Oc1cc2c(cc1O)C1c3ccc(O)c(O)c3OCC1(O)C2 (stereo unspecified),inactive: -24.4%,–
CN(C)CCC(c1ccc(Br)cc1)c1ccccn1 (stereo unspecified),–,inactive
COc1cc(/C=N/NC(=O)c2ccncc2)ccc1O,inactive: 2.3%,–
OCCN1CCN(CC(O)COc2ccc3ccccc3c2)CC1 (stereo unspecified),inactive: -14.1%,–
Oc1cc2c(cc1O)C(c1ccccc1)CNCC2 (stereo unspecified),inactive: -29.8%,–
C=CCOC(=O)C1=C[C@H](c2ccccc2)[C@@H](CCCO)[C@H](OCC)O1,inactive: 4.35%,–
O=C1NC[C@H](CCCCN2C[C@H](Cc3ccccc3)N(CCC3CCCCC3)C(=O)C2=O)N(CCc2ccccc2)C1=O,inactive: 18.4%,–
Cc1ccc(CN2CCN(/N=C/C(Br)=C\c3ccccc3)CC2)cc1,inactive: -2.25%,–
CCOC(=O)[C@@H]1[C@H]2COc3cc(OC)ccc3[C@@H]2N2C(=O)N(c3ccc(C)cc3)C(=O)[C@@]12C,inactive: 14.7%,–
C=CC[C@H](CC(=O)N[C@H](CO)Cc1ccccc1)C(=O)N[C@H](COC(=O)[C@H](CC=C)CC(=O)OC(C)(C)C)Cc1c[nH]c2ccccc12,inactive: -6%,–
CN(C)CC[C@@H](c1ccc(Br)cc1)c1ccccn1,inactive: -6.31%,–
COC(C[C@@H](O)C[C@@H](O)[C@@H](C)OCc1ccccc1)OC,inactive: -3.15%,–
CCCCCCN1C[C@@H](O)[C@H](n2cc(-c3ccc(F)cc3)nn2)C[C@@H]1c1ccccc1,inactive: -3.7%,–
CC(C)c1ccc2[nH]c3c(c2c1)CCCC3=O,–,active: 20.6 µM
Cc1ccc(/C(C#N)=C\c2ccc(N3CCOCC3)o2)cc1,–,active: 4.47 µM
COC(C[C@@H](O)C[C@H](O)[C@H](C)OCc1ccccc1)OC,inactive: 15.2%,–

Compound,"activity, negative = less viability",Potency
O=C(NCCCn1ccnc1)/C(=C\c1ccco1)NC(=O)c1ccco1,inactive: -2.62%,–
C[C@H](CO)N1C[C@H](C)[C@H](CN(C)C(=O)OCc2ccccc2)OCc2cnnn2CCCC1=O,inactive: 9.46%,–
COc1ccc(N2C(=O)C(Cl)=C(Oc3cccc(OC)c3)C2=O)cc1,–,active: 18.4 µM
C[C@@H]1O[C@@H](O[C@H]2[C@H](Oc3cc(O)c4c(c3)O[C@H](c3ccc(O)cc3)CC4=O)O[C@H](CO)[C@@H](O)[C@@H]2O)[C@H](O)[C@H](O)[C@H]1O,inactive: 25.4%,–
C=CCC[C@@H](Cc1ccc(F)cc1)C(=O)OC[C@@H](Cc1c[nH]c2ccccc12)NC(=O)[C@@H](CC=C)CC(=O)N[C@H](CO)Cc1ccccc1,inactive: -20.3%,–
Cc1ccc(C(=O)N/C(=C\c2ccc(-c3cccc([N+](=O)[O-])c3)o2)C(=O)NCCCN2CCOCC2)cc1,–,active: 18.4 µM
CCOC(=O)[C@@H]1[C@H]2COc3cc(OC)ccc3[C@H]2N2C(=O)N(c3cccc(C)c3)C(=O)[C@]12C,inactive: -0.28%,–
CCOC(=O)[C@@H]1[C@H]2COc3cc(OC)ccc3[C@H]2N2C(=O)N(c3ccc(C(F)(F)F)cc3)C(=O)[C@@]12C,inactive: 0.441%,–
COc1ccc(/C=N/OC(=O)Nc2ccccc2OC)cc1,–,active: 9.2 µM
Cc1ccc(C(O)(C(=O)NNc2ccc3ccccc3n2)c2ccc(C)cc2)cc1,inactive: -25.2%,–
O=C(NCCNC1CCC(c2ccccc2)CC1)c1ccc(F)cc1 (stereo unspecified),–,active: 20.6 µM
CCCCOc1ccc(CC(=O)NO)cc1,inactive: -19.5%,–
CCN1CCN(c2nc(-c3ccccc3)c3ccccc3n2)CC1,–,active: 13 µM
O=C(Nc1ccc(N2CCOCC2)cc1)c1ccc([N+](=O)[O-])o1,–,active: 7.31 µM
CC(C)(C)[C@@H]1COC(=O)[C@H](Cc2ccc(F)cc2)CC/C=C\C[C@@H](CC(=O)N(CCO)Cc2ccccc2)C(=O)N1,inactive: -8.1%,–
C/C=C/Cn1c(SCCCc2ccccc2)nc2c1c(=O)[nH]c(=O)n2C,inactive: -10.8%,–
Oc1ccc(C[C@@H]2CNCCN2CCCCC2CCCCC2)cc1,inactive: -21.6%,–
OCC[C@H]1C[C@H](O)[C@@H](O)[C@@]2(CCCc3ccccc3O2)O1,inactive: 16.8%,–
